{"source": "paper PMC10726135", "note": "The other results are listed elsewhere or left out. At the low end of the ranking the order means little. The protein was read in a cell extract, so binding may be indirect.", "data": [{"target": "T1, HNF4alpha8 (COS-7 nuclear extract) (UniProt P41235-5)", "T1 sequence": "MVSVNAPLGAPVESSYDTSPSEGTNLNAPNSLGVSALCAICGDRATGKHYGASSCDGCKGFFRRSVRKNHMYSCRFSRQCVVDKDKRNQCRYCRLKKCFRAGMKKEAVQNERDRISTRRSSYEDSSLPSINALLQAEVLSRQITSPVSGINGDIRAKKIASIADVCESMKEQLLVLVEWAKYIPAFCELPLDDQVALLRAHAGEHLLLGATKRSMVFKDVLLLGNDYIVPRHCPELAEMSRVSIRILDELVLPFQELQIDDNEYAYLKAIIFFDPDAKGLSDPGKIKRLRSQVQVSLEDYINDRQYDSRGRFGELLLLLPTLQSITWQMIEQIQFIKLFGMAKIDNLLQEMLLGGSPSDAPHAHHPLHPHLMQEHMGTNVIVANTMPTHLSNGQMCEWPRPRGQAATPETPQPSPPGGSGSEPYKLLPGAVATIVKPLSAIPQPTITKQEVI", "assay": "protein-binding microarray", "settings": "COS-7 nuclear extract on double-stranded Agilent 4x180k PBM; binding buffer, salt, pH and temperature not given; high values mean tight binding; double strand, one strand shown; sequences stand for … in …GCCTAGGGAGATTAGAGTATCGGTCGA", "values": [{"sequence": "GTCTGAGTGCTCATGATGGGAAGCCTCAGG", "binding signal (log2 normalized intensity)": -1.35}, {"sequence": "ATTAAACATCTTGCCCACATTCACACAATC", "binding signal (log2 normalized intensity)": 0.459}, {"sequence": "AAAGACGCGGAGCGGGGGACCGAGAGCCGC", "binding signal (log2 normalized intensity)": -1.2}, {"sequence": "ACAAAACAGCGTACTGTGCTAAAGAGTGAT", "binding signal (log2 normalized intensity)": -1.2}, {"sequence": "AACCCTGTTCTTGTAGGATTTCCAAGTGGA", "binding signal (log2 normalized intensity)": 1.66}, {"sequence": "GGTATTACAAAGCAATCTACTTTTCTTTTG", "binding signal (log2 normalized intensity)": 0.285}, {"sequence": "GTAAACACAGACTTTGGAATCACAATGATA", "binding signal (log2 normalized intensity)": 2.33}, {"sequence": "ATGTTATCATTAGGGAAAATAGTGACCCTG", "binding signal (log2 normalized intensity)": 3.82}, {"sequence": "GGTATTGAGGGAGCAAAGGGCATGGAGGAT", "binding signal (log2 normalized intensity)": 3.18}, {"sequence": "TCCATTTCTGCCCCTTGCTCCTGCTTGCTG", "binding signal (log2 normalized intensity)": 2.24}, {"sequence": "GGTAACATCAAAGCCAGGACTTCTAGAGTG", "binding signal (log2 normalized intensity)": -1.41}, {"sequence": "GGCATATCCAACCTTCTCCCACTTCCCTGC", "binding signal (log2 normalized intensity)": 0.153}, {"sequence": "CCCATTCCTTAGTGCATGGGAACTTCTCAC", "binding signal (log2 normalized intensity)": 0.777}, {"sequence": "TTCTTGCTGCAGCTGGGCTATACAATTCCA", "binding signal (log2 normalized intensity)": -1.25}, {"sequence": "AAAGGTCTTTGGTGGTGGGGGGTAGCCACT", "binding signal (log2 normalized intensity)": -0.151}, {"sequence": "CTCAGGCCGACCCCTGCCTGGACTGTCCTA", "binding signal (log2 normalized intensity)": 2.99}, {"sequence": "GCCTTGTGTACTGAGCAGGGTCCAACCCAC", "binding signal (log2 normalized intensity)": 3.56}, {"sequence": "CCGTGGTGTATGATGACGCCACGCCGCTCT", "binding signal (log2 normalized intensity)": -1.28}, {"sequence": "GGCTTCCCAACTCCATTATCTCTGTAAAAG", "binding signal (log2 normalized intensity)": 0.272}, {"sequence": "GGATGGACTTTAATCTCCAAGTAACTGAAA", "binding signal (log2 normalized intensity)": 4.03}, {"sequence": "CTCTGTTTGATCAGCTGGTCCTTCAAGTGT", "binding signal (log2 normalized intensity)": 1.86}, {"sequence": "GCATAACCAAACAGAGAGAAAGCAGTGACC", "binding signal (log2 normalized intensity)": 0.322}, {"sequence": "TTGATGGGCAGCGCGGCGCGCTGGGAAGGC", "binding signal (log2 normalized intensity)": -1.19}, {"sequence": "GTGCCCTTACATTTTGCTCTTTGTACCGTT", "binding signal (log2 normalized intensity)": 5.48}, {"sequence": "CTGTGAGTCAGGTACCTGCTTCTGCCCCAG", "binding signal (log2 normalized intensity)": 1.7}, {"sequence": "TTGCATATGCCACAGGGCAAGACACCAAAG", "binding signal (log2 normalized intensity)": -1.23}, {"sequence": "CCTCTGAAAACTTTTACTGGGAAGAGATAA", "binding signal (log2 normalized intensity)": -0.817}, {"sequence": "TGGCAGATTAGAGACCTCTAGACTCCAGCT", "binding signal (log2 normalized intensity)": -0.437}, {"sequence": "AGAAAGAAACAGGGGATGTTGATTCCCCTG", "binding signal (log2 normalized intensity)": -1.24}, {"sequence": "ATTTACTGAATGAATGTCCAACTTGCCCTG", "binding signal (log2 normalized intensity)": 2.48}, {"sequence": "CTCAACCTCCCCCTGGGGACAGGTGTTAAT", "binding signal (log2 normalized intensity)": 2.27}, {"sequence": "GATAACAGCACATTCCTTAACATGGTTTGC", "binding signal (log2 normalized intensity)": 0.422}, {"sequence": "AGAGCACATTCTTCCATATAACCCTTGAAC", "binding signal (log2 normalized intensity)": 4.39}, {"sequence": "GAGTTTAGGGACCGCAAATAAAAGAGGGCC", "binding signal (log2 normalized intensity)": -1.34}, {"sequence": "GCACAGCAGATGCTGGGCAAAGGGCAAGGC", "binding signal (log2 normalized intensity)": 4.05}, {"sequence": "TCCTCCTCCTGTTTGTATTCCTTGTCCTTG", "binding signal (log2 normalized intensity)": 2.11}, {"sequence": "TTGTCCTATGACTCTCTCAACACTGGCTTC", "binding signal (log2 normalized intensity)": -0.82}, {"sequence": "ATTTCACCTTTGGTCTTTGGTGAAACTCCA", "binding signal (log2 normalized intensity)": 3.44}, {"sequence": "GGGTTTGTTTTTTGCCCTTTGTACCCACAC", "binding signal (log2 normalized intensity)": 8.41}, {"sequence": "TAACATCTTTTCTCAGTTAACTGGAATGAA", "binding signal (log2 normalized intensity)": 1.44}, {"sequence": "TAGCCTCTGGGCTGGCTTTAGCTCAGCGGT", "binding signal (log2 normalized intensity)": -1.38}, {"sequence": "ATCAAAGGCTTCTAGAAGAGGTTAAAGACC", "binding signal (log2 normalized intensity)": 1.58}, {"sequence": "ATGCACTCATAACTAGGGTTCCAAGACCAA", "binding signal (log2 normalized intensity)": -1.2}, {"sequence": "GATTCCTCTTGAATTGGAAGGCAAAGTTCA", "binding signal (log2 normalized intensity)": 3.78}, {"sequence": "TGCCTGCCGGCTCTGAAGAGAACGGCTGAT", "binding signal (log2 normalized intensity)": -1.2}, {"sequence": "TATTTACATACCTTAGGCTGTGCATATTGG", "binding signal (log2 normalized intensity)": 0.994}, {"sequence": "TTCAAGCCTGAACAAACATGAGGGACTGGG", "binding signal (log2 normalized intensity)": -1.16}, {"sequence": "GTGTTCCTTTTTCTGTTCAATGGTGCTTTT", "binding signal (log2 normalized intensity)": 2.08}, {"sequence": "TCCAGCTGTTGGTGACTGACCCTGATCCCT", "binding signal (log2 normalized intensity)": 3.55}, {"sequence": "GGTGAGCCATTGGCTGGGGTGTCGGCGAGT", "binding signal (log2 normalized intensity)": -1.14}, {"sequence": "TTAAGTTTTCGAGGAGTCAAAAGGTGTATG", "binding signal (log2 normalized intensity)": 1.24}, {"sequence": "ACCTAGAGCTTCAGACGCCCTATGGCGTCC", "binding signal (log2 normalized intensity)": -1.31}, {"sequence": "TGGGGGGTAGCCACTGACAGGAGGTATGCC", "binding signal (log2 normalized intensity)": -1.35}, {"sequence": "AGGGTGGAAGTCCAACCTTTGCTCACTTGG", "binding signal (log2 normalized intensity)": 4.28}, {"sequence": "GACAAATTCCTGGGAACTGCGGACATAGCT", "binding signal (log2 normalized intensity)": -1.4}, {"sequence": "CATAGGAGAAACACATAAACCCTGACCCTC", "binding signal (log2 normalized intensity)": 3}, {"sequence": "TCCTTTGGATCATGTGTCTGAGCAAGTTTC", "binding signal (log2 normalized intensity)": 1.47}, {"sequence": "AATTAGGGAGTAGGGACAGCTAGTCTAGAC", "binding signal (log2 normalized intensity)": -1.36}, {"sequence": "TCAAGGAAGAGAACTCCCTATCCCCAGATT", "binding signal (log2 normalized intensity)": 2.35}, {"sequence": "GTGGCCATGATGCCATCTGGTGAAGCTTAT", "binding signal (log2 normalized intensity)": -0.778}, {"sequence": "AGTCCGTTACAGACAGGCAGCCCCTGGAAA", "binding signal (log2 normalized intensity)": -1.27}, {"sequence": "CATCACATTCCCCAGGCAATCTTCCAGTCC", "binding signal (log2 normalized intensity)": 0.591}, {"sequence": "CTCTGTATTGTAAAAGAAAGTGAGCAGGCA", "binding signal (log2 normalized intensity)": -0.689}, {"sequence": "TGTGTTGACCGATAACCCTCCTGAACATAA", "binding signal (log2 normalized intensity)": 0.902}, {"sequence": "CCAAAATGGCGACAAGAGTGACCTCTGGTC", "binding signal (log2 normalized intensity)": 5.71}, {"sequence": "AGGCGGAAGTAAGGCGGAAGTACTGCCCTT", "binding signal (log2 normalized intensity)": 2.03}, {"sequence": "AACTACAAACGGATATTTGATCAAAGGTCA", "binding signal (log2 normalized intensity)": 6.27}, {"sequence": "TTCACACTCCCACCAGCATGGTGATGCTAG", "binding signal (log2 normalized intensity)": -1.3}, {"sequence": "GCCAGATAGCCACTGGGGTCATGGAGCTGG", "binding signal (log2 normalized intensity)": 1.43}, {"sequence": "CCATCTTGCCCACCAATGATCAAAGGTTAG", "binding signal (log2 normalized intensity)": 4.73}, {"sequence": "TGTTCATTCATTCACCTTTCGCCCTTTGTC", "binding signal (log2 normalized intensity)": 4.49}, {"sequence": "ACGCAGGCCTGCAAGCTCCTGGTTGGGGCC", "binding signal (log2 normalized intensity)": -1.06}, {"sequence": "CTCACAGAAAGAAGAGACAGCTGGGCCCTG", "binding signal (log2 normalized intensity)": -1.34}, {"sequence": "TTGGGGCTGATGTCTTTCTGGCCAGAGGGG", "binding signal (log2 normalized intensity)": 0.573}, {"sequence": "AGCAGCATAAAGGACTTTCAACCCTGTGAT", "binding signal (log2 normalized intensity)": 3.89}, {"sequence": "GCCTCTGGGCTTTGATGGACATTGCTGGTG", "binding signal (log2 normalized intensity)": 1.01}, {"sequence": "CTATCACCTCTCCCACCTGAATTATTGTAT", "binding signal (log2 normalized intensity)": 1.97}, {"sequence": "GGGAGCAGGCAGATTTGACCTACGGACCAT", "binding signal (log2 normalized intensity)": 4.8}, {"sequence": "CAGGGTCAGAAGGGAGGTAGTCGCCCTCCG", "binding signal (log2 normalized intensity)": -0.202}, {"sequence": "AAATAAAGCAGCAAACCAGATAAGACTATC", "binding signal (log2 normalized intensity)": -1.33}, {"sequence": "AAGCAAGACTGCAGGGTCATAGCTTTATCT", "binding signal (log2 normalized intensity)": 0.165}, {"sequence": "CAATAAGCCAGTGAACCTTTGTCCCGTTAT", "binding signal (log2 normalized intensity)": 3.81}, {"sequence": "GGAGACCTGAAACTAGACCAAGAAGACTTT", "binding signal (log2 normalized intensity)": -0.267}, {"sequence": "GCAAAAATGCCAGGCATTTGCGATAATAGA", "binding signal (log2 normalized intensity)": -1.36}, {"sequence": "TTAGCTATCAGTGTTGACCTCTGGACCTCA", "binding signal (log2 normalized intensity)": 7.79}, {"sequence": "AGCACAACCCGGGCGCACAAGATGCCGCCT", "binding signal (log2 normalized intensity)": -1.15}, {"sequence": "GGAGAACAAAGTTCACCTTTCCCTTCTTCT", "binding signal (log2 normalized intensity)": 3.4}, {"sequence": "GAGAGAGAGAGAGGTGGGCAAAGGTCTCAA", "binding signal (log2 normalized intensity)": 3.68}, {"sequence": "TCACAAAGGGCTGAGGTTAAAGTCCACATT", "binding signal (log2 normalized intensity)": 8.03}, {"sequence": "GAATTCTCTAAGTAATCAATGGTTGCACTC", "binding signal (log2 normalized intensity)": 1.27}, {"sequence": "GATAACTGGGGGCAAAGGTTCACTTTGGGG", "binding signal (log2 normalized intensity)": 5.18}, {"sequence": "GGCCACAGACCCCCGGTGGAGCAGCTTTCT", "binding signal (log2 normalized intensity)": 1.81}, {"sequence": "GCAGTGAAATTCTGGCCAACCAGCACTTCT", "binding signal (log2 normalized intensity)": -1.38}]}]}
